Patent US20250297021A1 (SHANDONG SIMCERE BIOPHARMACEUTICAL CO NO 1, published 2025)

B1: BCMA-04 VL2VH2 (Fc fusion)
scFv: EVQLVQSGAEVKKPGSSVKVSCKASGYSFTSYGISWVRQAPGQGLEWMGEIYPRDDITYYNEKFKGRVTITADKSTSTAYMELSSLRSEDTAVYYCARHDYYYVNSVSAMDYWGQGTTVTVSSGGGGSGGGGSGGGGSDIQMTQSPSSLSASVGDRVTITCKSSQSLLYSSNQKNYLAWYQQKPGKSPKLLIYWASTRYSGVPSRFSGSGSGTDFTLTISSLQPEDFATYYCQQYYIYPWTFGGGTKVEIK[human IgG1 Fc with C220S (EU numbers) not spelt out]
B2: BCMA-05 VL3VH1 (Fc fusion)
scFv: EVQLVQSGAEVKKPGSSVKVSCKASGYMFTDHTFHWVRQAPGQGLEWMGYIYPRDDNTKYNEKFKGRVTITADKSTSTAYMELSSLRSEDTAVYYCARAGYYGSSHAMDYWGQGTTVTVSSGGGGSGGGGSGGGGSDIVMTQSPDSLAVSLGERATINCKASQDVSTAVAWYQQKPGQSPRLLIYSASSRYTGVPDRFSGSGSGTDFTLTISSLQAEDVAVYYCQQLYSTPWTFGGGTKVEIK[human IgG1 Fc with C220S (EU numbers) not spelt out]
notes: humanized scFv-Fc
B3: BCMA-05 VL3VH2 (Fc fusion)
scFv: B2 scFv with V2G, L4M
notes: humanized scFv-Fc
B4: BCMA-05 VL3VH3 (Fc fusion)
scFv: B2 scFv with V37M
notes: humanized scFv-Fc
B5: BCMA-05 VL3VH4 (Fc fusion)
scFv: B2 scFv with I70L
notes: humanized scFv-Fc
B6: BCMA-07 VL1VH2 (Fc fusion)
scFv: EVQLVQSGAEVKKPGSSVKVSCKASGYTFTDYWTHWVRQAPGQGLEWMGYINHGSGYTKYNQKFKDRVTLTADKSTSTAYMELSSLRSEDTAVYYCARLTGSYYFDYWGQGTTVTVSSGGGGSGGGGSGGGGSDIQMTQSPSSLSASVGDRVTITCSASSSVSYMHWYQQKPGKSPKRLIYDTSKLASGVPSRFSGSGSGTEFTLTISSLQPEDFATYYCQQWSSNPLTFGQGTKLEIK[human IgG1 Fc with C220S (EU numbers) not spelt out]
notes: humanized scFv-Fc
B7: BCMA-07 VL1VH3 (Fc fusion)
scFv: B6 scFv with M48I, V68A
notes: humanized scFv-Fc
B8: BCMA-07 VL2VH3 (Fc fusion)
scFv: B6 scFv with M48I, V68A, L179W
notes: humanized scFv-Fc
B9: BCMA-07 VL3VH2 (Fc fusion)
scFv: B6 scFv with D134Q, L179W
notes: humanized scFv-Fc
B10: BCMA-07 VL3VH3 (Fc fusion)
scFv: B6 scFv with M48I, V68A, D134Q, L179W
notes: humanized scFv-Fc
B11: BCMA-07 VL4VH3 (Fc fusion)
scFv: B6 scFv with M48I, V68A, D134Q, K174T, L179W
notes: humanized scFv-Fc
B12: BCMA-04 VL1VH1 (Fc fusion)
scFv: EVQLVQSGAEVKKPGSSVKVSCKASGYTFSSYGISWVRQAPGQGLEWMGEIYPRDDITYYNEKFKGRVTITADKSTSTAYMELSSLRSEDTAVYYCARHDYYYVNSVSAMDYWGQGTTVTVSSGGGGSGGGGSGGGGSDIVMTQSPDSLAVSLGERATINCKSSQSLLYSSNQKNYLAWYQQKPGQSPKLLIYWASTRYSGVPDRFSGSGSGTDFTLTISSLQAEDVAVYYCQQYYIYPWTFGGGTKVEIK[human IgG1 Fc with C220S (EU numbers) not spelt out]
B13: BCMA-04 VL1VH3 (Fc fusion)
scFv: B12 scFv with T28S, S30T, I70L
B14: BCMA-04 VL1VH4 (Fc fusion)
scFv: B12 scFv with V5Q, T28S, S30T
B15: BCMA-04 VL1VH5 (Fc fusion)
scFv: B12 scFv with T28S, S30T, Q39L
notes: humanized scFv-Fc
B16: BCMA-05 VL1VH1 (Fc fusion)
scFv: EVQLVQSGAEVKKPGSSVKVSCKASGYMFTDHTFHWVRQAPGQGLEWMGYIYPRDDNTKYNEKFKGRVTITADKSTSTAYMELSSLRSEDTAVYYCARAGYYGSSHAMDYWGQGTTVTVSSGGGGSGGGGSGGGGSDIQMTQSPSSLSASVGDRVTITCKASQDVSTAVAWYQQKPGKSPRLLIYSASSRYTGVPSRFSGSGSGTDFTFTISSLQPEDIATYYCQQLYSTPWTFGGGTKVEIK[human IgG1 Fc with C220S (EU numbers) not spelt out]
notes: humanized scFv-Fc
B17: BCMA-05 VL1VH2 (Fc fusion)
scFv: B16 scFv with V2G, L4M
notes: humanized scFv-Fc
B18: BCMA-05 VL1VH3 (Fc fusion)
scFv: B16 scFv with V37M
notes: humanized scFv-Fc
B19: BCMA-05 VL1VH4 (Fc fusion)
scFv: B16 scFv with I70L
notes: humanized scFv-Fc
B20: BCMA-05 VL2VH1 (Fc fusion)
scFv: B16 scFv with S196D
notes: humanized scFv-Fc
B21: BCMA-07 VL2VH1 (Fc fusion)
scFv: B6 scFv with L70I, L179W
notes: humanized scFv-Fc

target: T1, BCMA expressed endogenously on U266 and H929 cells (UniProt Q02223 1-184, limits assumed); assay: FACS on U266 cells
T1 construct: whole, on cells; The cell line (U266 or H929) is named under assay in each row; also called B cell maturation antigen; CD269
T1 sequence (looked up): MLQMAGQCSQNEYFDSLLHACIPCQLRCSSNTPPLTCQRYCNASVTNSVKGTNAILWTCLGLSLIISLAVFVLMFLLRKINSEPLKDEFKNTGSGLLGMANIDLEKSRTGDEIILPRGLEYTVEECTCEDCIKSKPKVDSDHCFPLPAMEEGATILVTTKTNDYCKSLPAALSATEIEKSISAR
Experimental: (§1) The desired cells were scale-up cultured in T-75 cell culture flasks to the logarithmic growth phase, and the cells were pipetted into a single cell suspension. After the cells were counted, the cells were centrifuged and the cell pellet was resuspended in FACS buffer (PBS+2% fetal calf serum) to 2×10⁶ cells per ml, and the suspension was added to the 96-well FACS reaction plate at 50 μl per well, then the sample to be tested of the chimeric antibody was added at 50 μl per well and the mixture was incubated at 4° C. for 1 h. The obtained mixture was centrifuged and washed 3 times with a PBS buffer. […] The obtained mixture was centrifuged and washed 3 times with a PBS buffer. 100 μl of the mixture was taken for detection and result analysis by FACS (FACS Canto™, purchased from BD Company). Data analysis was performed by software (FlowJo) to obtain the mean fluorescence intensity (MFI) of the cells. Then, a software (GraphPad Prism8) was used for analysis, data fitting and EC50 calculation. The results are shown in Table 10 and FIGS. 10A-10B, FIGS. 11A-11B, and FIGS. 12A-12B. All seven chimeric antibodies bind to three types of BCMA-expressing endogenous cells.
(§2) The specific method was the same as that in Example 5 (C). First, the binding of humanized antibodies to U266 cells was detected. Based on the results, some humanized antibodies were selected and tested for binding to H929 cells. The remaining humanized antibodies were not tested for binding to H929 cells by FACS (indicated by “/” in the table). All humanized antibodies bind to U266 cells, and all humanized antibodies that bind to the H929 cell in the test bind to H929 cells.

Row | Binder | EC50 [nM] | Maximum mean fluorescence intensity
1 | B1 | 17.3 | 3530
2 | B2 | 17.2 | 1790
3 | B3 | 34.5 | 2170
4 | B4 | 24.1 | 2270
5 | B5 | 22 | 2000
6 | B6 |  | 4250
7 | B7 | 61 | 1420
8 | B8 | 376 | 4160
9 | B9 |  | 33500
10 | B10 |  | 24800
11 | B11 | 40.1 | 2700
12 | B12 | 62.8 | 2980
13 | B13 | 66.5 | 2970
14 | B14 | 39.1 | 3150
15 | B15 | 36.1 | 3080
16 | B16 | 13.2 | 2550
17 | B17 | 12 | 2620
18 | B18 | 11.2 | 2620
19 | B19 | 14.8 | 2450
20 | B20 | 21.7 | 2350

target: T1, BCMA expressed endogenously on U266 and …; assay: FACS on H929 cells
Experimental: as §1, §2

Row | Binder | EC50 [nM] | Maximum mean fluorescence intensity
21 | B1 | 21.2 | 3460
22 | B2 | 15.1 | 12000
23 | B3 | 20.4 | 13400
24 | B4 | 14.8 | 13600
25 | B5 | 27.8 | 12900
26 | B6 | 126 | 20700
27 | B7 | 55.9 | 14500
28 | B21 | 134 | 32500
29 | B8 | 28.2 | 20600
30 | B9 |  | 73200
31 | B10 |  | 52900
32 | B11 | 23.1 | 19900
33 | B16 | 8.79 | 14700
34 | B17 | 7.78 | 15100
35 | B18 | 7.61 | 15300
36 | B19 | 9.51 | 14800
37 | B20 | 11.5 | 14500

Where a chain is given by its changes, count along the chain named.
